In PubChem BioAssay AID1347430 (National Center for Advancing Translational Sciences (NCATS), 2020):
The whole screen tested about 91,000 compounds, of which about 130 (0.14%) were called active. This list was built around the results that the source calls inconclusive (neither active nor inactive); the mix of calls is not that of the screen. Calls follow the shape of the dose curve; as a rule, active = well fitted inhibition curve with a large enough effect; inconclusive = small, poorly fitted or top-dose-only effect; inactive = flat fitted curve, though single readings scatter. Potencies of inconclusive entries are doubtful fits and often do not repeat.

tested on: Uracil-DNA glycosylase; assay: Primary qHTS assay for inhibitors of Activation Induced Cytidine Deaminase (AID): UDG Counterscreen signal; conditions: FRET deamination/UDG coupled assay, UDG read, 4 h; series mostly up to 115 µM; also: nearly all actives have a fitted effect of over 65% in size
Potency is read from the fitted curve at half-maximal effect; tags tell the direction and shape of the fitted curve.

SMILES | Potency
Cc1cccc(-c2nc(CN3CCCC(C(=O)N4CCN(c5cc(Cl)ccc5C)CC4)C3)c(C)o2)c1 (stereo unspecified) | active: 89.1 µM
COc1ccc(-c2noc(CN(C)S(=O)(=O)c3c(C)cc(C)cc3C)n2)cc1OC | inconclusive: 89.1 µM [inhibitor, partial curve, poor fit]
CCSc1nn(CC(=O)Nc2cccc(CC)c2)c(N)c1S(=O)(=O)c1ccccc1 | inconclusive: 63.1 µM [inhibitor, partial curve, poor fit]
Cc1oc(-c2ccc(Cl)cc2)nc1CN1CCCC(C(=O)NCCc2ccc(Cl)cc2)C1 (stereo unspecified) | inconclusive: 89.1 µM [inhibitor, partial curve, poor fit]
COc1ccc(C2=CC(c3c(F)cccc3Cl)n3nnnc3N2)cc1 (stereo unspecified) | inconclusive: 89.1 µM [inhibitor, single point]
CCCC(O)c1nc2ccccc2n1CCCOc1ccc(Cl)cc1 (stereo unspecified) | inactive
CCc1nc2ccc(C(=O)NCCc3ccccc3OC)cc2nc1CC | inconclusive: 89.1 µM [inhibitor, single point]
CCCCN1CC(c2nc3ccccc3n2CCCCOc2cc(C)ccc2C)CC1=O (stereo unspecified) | inconclusive: 89.1 µM [inhibitor, single point]
Cc1cccc(OCC(=O)Nc2cccc(OCc3cc(=O)n4cccc(C)c4n3)c2)c1 | inconclusive: 89.1 µM [inhibitor, single point]
CCSc1ncc(Cl)c(C(=O)N2CCN(c3ccccc3OC)CC2)n1 | inconclusive: 79.4 µM [inhibitor, single point]
CCc1cccc(NC(=O)c2cc3c(=O)n(Cc4ccccc4)ccc3nc2C)c1 | inconclusive: 79.4 µM [inhibitor, partial curve, poor fit]
CN(C)c1ccc(/C=C/c2nc(-c3ccccc3O)n(-c3ccccc3)n2)cc1 | inconclusive: 89.1 µM [inhibitor, partial curve, poor fit]
Cn1c(=O)[nH]c(=O)c2c1nc(N1CCOCC1)n2Cc1ccccc1 | inconclusive: 89.1 µM [inhibitor, single point]
Cc1ccccc1Cn1c(CN2CCC(C(=O)NCc3ccc(Cl)cc3)CC2)cc2ccccc21 | inconclusive: 44.7 µM [inhibitor, single point]
Cc1cc(C)n(C(=O)c2cccc(S(=O)(=O)N3CCOCC3)c2)n1 | inconclusive: 89.1 µM [inhibitor, single point]
Cc1cc(C)cc(NC(=O)COc2cccc3c(=O)n(C)ccc23)c1 | inconclusive: 89.1 µM [inhibitor, single point]
CCOc1ccc(NS(=O)(=O)c2ccc3c(c2)NC(=O)CCS3)cc1 | inactive
CCn1c(SCC(=O)Nc2cc(C)ccc2F)nnc1-c1ccccc1O | inactive
COc1ccc(C2=NC(c3ccccc3)=Nc3ccc(C)cc3N2)cc1 | active: 79.4 µM
CCc1ccc(OCC(=O)N(Cc2ccc(C(C)C)cc2)C2CCS(=O)(=O)C2)cc1 (stereo unspecified) | inconclusive: 28.2 µM [inhibitor, partial curve, poor fit]
Cc1ccc(-n2c(C)cc(/C=C(\C#N)C(=O)Nc3ccc(C)c(C)c3)c2C)cc1 | inconclusive: 100 µM [inhibitor, single point]
Cc1ccc(-n2ncc(C(=O)NCCN3CCN(C)CC3)c2C2CCN(C(=O)OC(C)(C)C)CC2)cc1C | inconclusive: 89.1 µM [inhibitor, single point]

SMILES | Potency
CCC(=O)N1c2ccccc2CC1C(=O)NCCCN1CCN(c2ccc(OC)cc2)CC1 (stereo unspecified) | inactive
Cc1ccc(S(=O)(=O)Cc2nc(-c3ccc(C(=O)NCCN4CCOCC4)cc3)oc2C)cc1 | inactive
CC(C)(C)OC(=O)Nc1ccc(CC(=O)N2CCCC2c2ccsc2)cc1 (stereo unspecified) | inactive
O=[N+]([O-])c1cc(S(=O)(=O)N/N=C/c2cccs2)ccc1Cl | inactive
COC(=O)c1sccc1S(=O)(=O)N1CCN(c2ccc(Cl)cc2)CC1 | inconclusive: 89.1 µM [inhibitor, partial curve, poor fit]
NCC(c1ccco1)N1CCCC1 (stereo unspecified) | inactive
CCC12CN3CC(CC)(CN(C1)C3c1ccc(O)c(OC)c1)C2O (stereo unspecified) | inactive
CC(=O)c1ccc(C(=O)N(Cc2cccnc2)c2nc3c(C)c(C)ccc3s2)cc1 | inconclusive: 89.1 µM [inhibitor, partial curve, poor fit]
CC(C)CNc1oc(-c2ccc([N+](=O)[O-])cc2)nc1C#N | inactive
CC(=O)Oc1ccc2c(=O)c(-c3nc4ccccc4s3)c(C)oc2c1 | inactive
COc1ccccc1-n1c(=O)c2c3c(sc2n(Cc2ccccc2F)c1=O)CN(C(C)=O)CC3 | inconclusive: 79.4 µM [inhibitor, partial curve, poor fit]
COC(=O)c1cccc(S(=O)(=O)Oc2ccc3ccc(=O)oc3c2)c1 | inactive
CC(C)c1ccc(CNC(C)(C)CO)cc1 | inactive
Cc1ccc(Sc2c(C)nn(C(=O)c3ccc(Br)cc3)c2C)cc1 | inconclusive: 100 µM [inhibitor, single point]
Cc1cc(C)nc(NNc2ccc([N+](=O)[O-])cc2)n1 | inconclusive: 39.8 µM [inhibitor, full curve]
CCc1ccccc1NC(=O)C(CC)Oc1ccccc1-c1nnc(-c2ccccc2)o1 (stereo unspecified) | inconclusive: 79.4 µM [inhibitor, partial curve]
CC(C)Oc1ccc(CNC(=O)C2CCCCN2S(=O)(=O)c2ccc(F)cc2)cc1 (stereo unspecified) | active: 89.1 µM
COc1ccc(C)cc1NC(=O)CSc1nc2ccccc2nc1N1CCOCC1 | inconclusive: 79.4 µM [inhibitor, partial curve, poor fit]
CCN(C(=O)c1cc2cc3ccc(OC)cc3nc2o1)c1cccc(C)c1 | inconclusive: 79.4 µM [inhibitor, partial curve, poor fit]
COc1ccc2c(c1)CC/C(=C\c1ccc(Br)o1)C2=O | inactive
COc1ccc(C(=O)/C(=C/c2ccncc2)c2nc3ccccc3o2)cc1OC | inconclusive: 89.1 µM [inhibitor, single point]
COC(=O)c1scc(-c2ccc(C)cc2)c1S(=O)(=O)Nc1ccc(N(C)C)cc1 | inconclusive: 89.1 µM [inhibitor, partial curve, poor fit]

SMILES | Potency
O=C1CCC(C(=O)Nc2ccc(Cl)c(Cl)c2)N1 (stereo unspecified) | inactive
Cc1oc(-c2cccc(Cl)c2)nc1CN1CCC(C(=O)NCCCN2CCN(c3ccc(F)cc3)CC2)CC1 | inconclusive: 89.1 µM [inhibitor, partial curve, poor fit]
COc1ccc(C2=NC(c3ccncc3)=Nc3ccc(Br)cc3N2)cc1 | inconclusive: 35.5 µM [inhibitor, partial curve, poor fit]
COc1ccc(-n2c(=O)c3c4c(sc3n(Cc3ccccc3Cl)c2=O)CCC4)c(OC)c1 | inconclusive: 100 µM [inhibitor, single point]
COc1ccc(-c2noc(CSc3nnc(C)n3-c3ccc(OC)cc3)n2)cc1 | inconclusive: 79.4 µM [inhibitor, partial curve, poor fit]
Cc1cc2oc(C(=O)N(Cc3ccccc3F)C3CCS(=O)(=O)C3)c(C)c2cc1Cl (stereo unspecified) | inconclusive: 79.4 µM [inhibitor, single point]
CC(=O)N1CCCC1c1nc2ccccc2n1Cc1ccccc1 (stereo unspecified) | inconclusive: 89.1 µM [inhibitor, single point]
COc1ccc(/C=C/C(=O)Nc2ccc(Cl)c(Cl)c2)cc1OC | inconclusive: 89.1 µM [inhibitor, single point]
Cc1ccc(C)c(N2CCN(C(=O)C3CCN(Cc4nc(-c5cccc(Cl)c5)oc4C)CC3)CC2)c1 | active: 89.1 µM
Cc1ccccc1C(=O)OCc1nc(N)c2ccccc2n1 | inactive
CCOc1ccc(C(=O)N2CCN(Cc3cc(=O)n4nc(-c5cccc(OC)c5)sc4n3)CC2)cc1 | inconclusive: 100 µM [inhibitor, single point]
Cc1cc(NC(=O)CCN2CCN(Cc3cccc4ccccc34)CC2)ccc1Br | active: 89.1 µM
O=C(CC1N=C2c3ccccc3N=C(SCc3ccc(Cl)cc3)N2C1=O)NC1CCCCC1 (stereo unspecified) | inactive
Cc1ccc(-n2ncc3c(N4CCC(C)CC4)ncnc32)cc1C | inconclusive: 89.1 µM [inhibitor, partial curve, poor fit]
COc1ccc(CNC(=O)Cc2coc3ccc(C(C)C)cc23)cc1 | inconclusive: 89.1 µM [inhibitor, single point]
COCCN1CCCN(C(=O)c2cc(-c3ccc(F)cc3)n[nH]2)CC1 | inactive
COc1ccc(N(C(=O)c2ccccc2C)S(=O)(=O)c2ccc(C)cc2)cc1 | active: 79.4 µM
COc1ccc(S(=O)(=O)Nc2cc(-c3cn4cccc(C)c4n3)ccc2C)cc1C | inconclusive: 100 µM [inhibitor, single point]
COc1ccc(C(=O)N2CCN(c3nc4c(C)c(Cl)ccc4s3)CC2)c(OC)c1 | inconclusive: 89.1 µM [inhibitor, partial curve, poor fit]
Cc1ccc(Cl)cc1N1CCN(C(=O)C2CCCN(Cc3nc(-c4cccc(Cl)c4)oc3C)C2)CC1 (stereo unspecified) | inconclusive: 89.1 µM [inhibitor, partial curve, poor fit]
COc1ccc(N(C)C(=O)c2cc3c(s2)-c2ccccc2OC3)cc1 | inactive
COc1cc(OC)c(OC)cc1/C=C/c1nc2ccccc2c(=O)n1-c1ccc(Br)c(C)c1 | inconclusive: 79.4 µM [inhibitor, single point]
